# Some of the results follow. The energies were worked out here from pooled read counts, against the library average; single values are noisy.
# Target: T1, Pho4 (S. cerevisiae) (UniProt P07270)
# T1 sequence: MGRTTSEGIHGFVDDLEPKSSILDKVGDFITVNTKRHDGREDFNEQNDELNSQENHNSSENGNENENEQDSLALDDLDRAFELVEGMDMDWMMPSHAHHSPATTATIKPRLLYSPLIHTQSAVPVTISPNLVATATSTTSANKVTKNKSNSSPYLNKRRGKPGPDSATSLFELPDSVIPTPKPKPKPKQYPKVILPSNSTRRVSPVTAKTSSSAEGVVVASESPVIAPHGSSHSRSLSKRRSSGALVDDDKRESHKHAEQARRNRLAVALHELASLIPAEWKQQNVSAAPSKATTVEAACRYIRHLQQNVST
# Assay: relative binding free energy (BET-seq); higher = weaker binding
# Details: reference: library average
row,Sequence,relative binding free energy
1,GGAGTCACGTGTTCTT,0.11 kcal/mol
2,TAAGTCACGTGGGGCA,-0.04 kcal/mol
3,CGTTGCACGTGGTCTT,-0.01 kcal/mol
4,TGGATCACGTGTGTGC,0.19 kcal/mol
5,TCTATCACGTGTTGTG,0.01 kcal/mol
6,CGGTTCACGTGGGGGG,0.16 kcal/mol
7,TAGAACACGTGTGTGA,-0.03 kcal/mol
8,AATGGCACGTGAAGTG,0.03 kcal/mol
9,AAAGTCACGTGTGTCT,0.12 kcal/mol
10,GTGTTCACGTGCCGGT,0.24 kcal/mol
11,GGTCGCACGTGTAGGC,0.1 kcal/mol
12,GGTATCACGTGAACGG,0.32 kcal/mol
13,ATGAGCACGTGTTATT,-0.12 kcal/mol
14,GGGTGCACGTGATCGA,0.09 kcal/mol
15,GTCTTCACGTGGTGGT,0.35 kcal/mol
16,TTAAGCACGTGGGGAG,-0.18 kcal/mol
17,TGGGACACGTGAAGTG,0.32 kcal/mol
18,GGGGGCACGTGAGTGA,0.15 kcal/mol
19,AAAGGCACGTGGTTCT,-0.13 kcal/mol
20,TAAACCACGTGGGTGG,-0.25 kcal/mol
21,CAGTTCACGTGGGGGA,0.19 kcal/mol
22,GGGCGCACGTGTAAGT,-0.05 kcal/mol
23,AGAAGCACGTGGCGTT,-0.12 kcal/mol

row,Sequence,relative binding free energy
1,GGACGCACGTGAGTGT,0.3 kcal/mol
2,GAGGGCACGTGCAGGG,-0.11 kcal/mol
3,ATAGTCACGTGAGGCG,0.13 kcal/mol
4,GACGTCACGTGTTGTG,0.24 kcal/mol
5,AGGAGCACGTGAGCGA,0.24 kcal/mol
6,GGAAGCACGTGGGGGC,-0.23 kcal/mol
7,TTGTTCACGTGTATTT,0.31 kcal/mol
8,GGGCTCACGTGATCTG,0.33 kcal/mol
9,ATAATCACGTGGGTAG,0.08 kcal/mol
10,CGGTCCACGTGTTGGG,0.01 kcal/mol
11,GAGTTCACGTGAGGCG,0.55 kcal/mol
12,CGGATCACGTGGGTGT,0.08 kcal/mol
13,TGCGCCACGTGTGGTG,-0.09 kcal/mol
14,TGAGCCACGTGCGGGT,-0.18 kcal/mol
15,TGACTCACGTGAGGGG,0.33 kcal/mol
16,TTGGTCACGTGACTGC,0.28 kcal/mol
17,TTGTGCACGTGTGCCA,0.12 kcal/mol
18,AGGTTCACGTGTTCAG,0.32 kcal/mol
19,GGAATCACGTGTTTGG,0.11 kcal/mol
20,ATTGGCACGTGGTGCA,-0.24 kcal/mol
21,TAGATCACGTGTAGGT,0.19 kcal/mol
22,TGGTCCACGTGAGTGG,0.24 kcal/mol
23,TATAGCACGTGAGGAA,0.24 kcal/mol

row,Sequence,relative binding free energy
1,ACGTGCACGTGTATGT,-0.12 kcal/mol
2,CGTTTCACGTGTTGTA,0.23 kcal/mol
3,TAAGTCACGTGGCAGT,0.02 kcal/mol
4,TGATGCACGTGCATTG,-0.07 kcal/mol
5,GCTGACACGTGTTGGG,0.09 kcal/mol
6,ATTGCCACGTGTAGGT,-0.08 kcal/mol
7,CGAGTCACGTGGAGGT,0.17 kcal/mol
8,TTTGTCACGTGTAAGC,0.13 kcal/mol
9,GTGATCACGTGCGGGA,-0.07 kcal/mol
10,TGGAGCACGTGAATGT,0.18 kcal/mol
11,TGAATCACGTGGTGGG,0.18 kcal/mol
12,GTTCACACGTGGGGTC,-0.09 kcal/mol
13,TTTAACACGTGGTGCA,-0.07 kcal/mol
14,GATTTCACGTGCTGGA,0.34 kcal/mol
15,TCGGTCACGTGAGAGG,0.27 kcal/mol
16,TGTGTCACGTGAGATC,0.34 kcal/mol
17,CGTAGCACGTGAGATG,0.16 kcal/mol
18,GCTGGCACGTGCATGG,-0.05 kcal/mol
19,TAGTCCACGTGATTGT,0.17 kcal/mol
20,AGTTACACGTGGTAAA,0 kcal/mol
21,ACAGTCACGTGGATGT,0.15 kcal/mol
22,TGGGTCACGTGGGCTT,0.04 kcal/mol
23,TTCGTCACGTGTTTTG,0.11 kcal/mol

row,Sequence,relative binding free energy
1,TTTAGCACGTGGTATA,-0.19 kcal/mol
2,GGTTGCACGTGGTGGC,0.04 kcal/mol
3,TCGGTCACGTGTTAGG,0.22 kcal/mol
4,TATGTCACGTGAGAGT,0.32 kcal/mol
5,CATGGCACGTGCGTGG,-0.18 kcal/mol
6,TGTATCACGTGTAAAT,0.19 kcal/mol
7,GGCTACACGTGGTGGG,0.03 kcal/mol
8,ATATTCACGTGTTCTT,0.13 kcal/mol
9,GTATACACGTGTGTGG,0.05 kcal/mol
10,AAATGCACGTGGGAAT,-0.01 kcal/mol
11,AGGGGCACGTGTAGAG,-0.05 kcal/mol
12,TGTAGCACGTGTCAGA,-0.12 kcal/mol
13,TGATCCACGTGGCGGG,-0.11 kcal/mol
14,TGTAACACGTGAGTCA,0.28 kcal/mol
15,GGAGGCACGTGAGTAT,-0.04 kcal/mol
16,GGTACCACGTGATGGT,-0.1 kcal/mol
17,TGGCTCACGTGTTTTC,0.34 kcal/mol
18,CCTGTCACGTGGCGGT,0.06 kcal/mol
19,CAGGTCACGTGGGCGC,-0.04 kcal/mol
20,CGTGTCACGTGTTGTA,0.08 kcal/mol
21,TAGCACACGTGTTTGT,-0.07 kcal/mol
22,GATAGCACGTGAATGT,0.16 kcal/mol
23,AGATACACGTGGCGGG,0.1 kcal/mol

row,Sequence,relative binding free energy
1,ATGGGCACGTGCAAGA,-0.05 kcal/mol
2,CTGTGCACGTGGGTCG,-0.18 kcal/mol
3,TTAATCACGTGTGCTT,0.05 kcal/mol
4,TTTAGCACGTGCGGTC,-0.01 kcal/mol
5,CGGGCCACGTGTTATG,0 kcal/mol
6,AGTTTCACGTGCGGGG,0.28 kcal/mol
7,ATGAACACGTGAGGAG,0.27 kcal/mol
8,GGTCTCACGTGTTATT,0.26 kcal/mol
9,GTGGTCACGTGCATGA,0.19 kcal/mol
10,TTAGACACGTGGGGAT,-0.12 kcal/mol
11,ACAATCACGTGGTTTT,0.12 kcal/mol
12,GAGGTCACGTGTATAG,-0.08 kcal/mol
13,GTGGTCACGTGAGTGC,0.28 kcal/mol
14,GGTTACACGTGATATA,0.19 kcal/mol
15,GGTTGCACGTGCGAGT,-0.1 kcal/mol
16,TTAAGCACGTGTTTGG,-0.06 kcal/mol
17,TGGGTCACGTGTAGTA,0.17 kcal/mol
18,GGTCTCACGTGAAGGT,0.31 kcal/mol
19,AGTATCACGTGTCGTG,0.15 kcal/mol
20,TGTCCCACGTGTAGTG,-0.05 kcal/mol
21,CGGACCACGTGGGGTT,-0.12 kcal/mol
22,AGGGTCACGTGTATTA,0.18 kcal/mol
23,GTCATCACGTGGTATT,0.13 kcal/mol

# Source: the BET-seq Pho4 binding data (Le et al. 2018)
